# According to the supplement of paper PMC8728848:
# Some of the results follow.
# Tests used:
# Assay in all cases: glycan array binding signal (z-score within array); higher = stronger binding
# Conditions in all cases: glycan notation: IUPAC condensed, linker removed
# [1] = target: Neu5Ac(a2-3)Gal(b1-3)[Neu5Ac(a2-6)]GalNAc
# In short: (§1)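 Glycan array data came from 3228 arrays in the Consortium for Functional Glycomics database, and only arrays with an available protein sequence were kept. Glycan names were put into IUPAC-condensed notation, and columns mapping to the same glycan were averaged. The binding signal is a within-array Z-score, averaged across arrays of one protein sequence run at different concentrations or buffers and across linkers. A negative Z-score can be read as non-binding.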
# [2] = target: Neu5Ac(a2-3)Gal(b1-4)Glc
# In short: as §1
# [3] = target: Neu5Ac(a2-3)Gal(b1-4)GlcNAc
# In short: as §1
# [4] = target: Neu5Ac(a2-3)Gal(b1-4)GlcNAc(b1-3)Gal(b1-4)GlcNAc
# In short: as §1
# [5] = target: Neu5Ac(a2-3)Gal(b1-4)GlcNAc(b1-3)Gal(b1-4)GlcNAc(b1-3)Gal(b1-4)GlcNAc
# In short: as §1
# [6] = target: Neu5Ac(a2-3)Gal(b1-4)GlcNAc(b1-3)Gal(b1-4)[Fuc(a1-3)]GlcNAc
# In short: as §1
# [7] = target: Neu5Ac(a2-3)Gal(b1-4)GlcNAc6S
# In short: as §1
# [8] = target: Neu5Ac(a2-3)Gal(b1-4)[Fuc(a1-3)]GlcNAc
# In short: as §1
# [9] = target: Neu5Ac(a2-3)Gal(b1-4)[Fuc(a1-3)]GlcNAc(b1-3)Gal
# In short: as §1
# [10] = target: Neu5Ac(a2-3)Gal(b1-4)[Fuc(a1-3)]GlcNAc(b1-3)Gal(b1-4)GlcNAc
# In short: as §1
# [11] = target: Neu5Ac(a2-3)Gal(b1-4)[Fuc(a1-3)]GlcNAc(b1-3)Gal(b1-4)[Fuc(a1-3)]GlcNAc(b1-3)Gal(b1-4)[Fuc(a1-3)]GlcNAc
# In short: as §1
# [12] = target: Neu5Ac(a2-3)Gal(b1-4)[Fuc(a1-3)]GlcNAc6S
# In short: as §1
# [13] = target: Neu5Ac(a2-3)Gal6S(b1-4)GlcNAc
# In short: as §1
# [14] = target: Neu5Ac(a2-3)Gal6S(b1-4)[Fuc(a1-3)]GlcNAc
# In short: as §1
# [15] = target: Neu5Ac(a2-3)GalNAc
# In short: as §1
# [16] = target: Neu5Ac(a2-3)GalNAc(b1-4)GlcNAc
# In short: as §1
# [17] = target: Neu5Ac(a2-3)[GalNAc(b1-4)]Gal(b1-4)Glc
# In short: as §1
# [18] = target: Neu5Ac(a2-3)[GalNAc(b1-4)]Gal(b1-4)GlcNAc
# In short: as §1
# [19] = target: Neu5Ac(a2-3)[Neu5Ac(a2-6)]GalNAc
# In short: as §1
# [20] = target: Neu5Ac(a2-6)Gal
# In short: as §1
# [21] = target: Neu5Ac(a2-6)Gal(b1-4)Glc
# In short: as §1
# [22] = target: Neu5Ac(a2-6)Gal(b1-4)GlcNAc
# In short: as §1
# [23] = target: Neu5Ac(a2-6)Gal(b1-4)GlcNAc(b1-2)Man(a1-3)[Neu5Ac(a2-6)Gal(b1-4)GlcNAc(b1-2)Man(a1-6)]Man(b1-4)GlcNAc(b1-4)GlcNAc
# In short: as §1
# [24] = target: Neu5Ac(a2-6)Gal(b1-4)GlcNAc(b1-3)Gal(b1-4)GlcNAc
# In short: as §1
# [25] = target: Neu5Ac(a2-6)Gal(b1-4)GlcNAc(b1-3)Gal(b1-4)[Fuc(a1-3)]GlcNAc(b1-3)Gal(b1-4)[Fuc(a1-3)]GlcNAc
# In short: as §1
# [26] = target: Neu5Ac(a2-6)Gal(b1-4)GlcNAc6S
# In short: as §1
# [27] = target: Neu5Ac(a2-6)GalNAc
# In short: as §1
# [28] = target: Neu5Ac(a2-6)GalNAc(b1-4)GlcNAc
# In short: as §1
# [29] = target: Neu5Ac(a2-8)Neu5Ac
# In short: as §1
# [30] = target: Neu5Ac(a2-8)Neu5Ac(a2-3)Gal(b1-4)Glc
# In short: as §1
# [31] = target: Neu5Ac(a2-8)Neu5Ac(a2-3)[GalNAc(b1-4)]Gal(b1-4)Glc
# In short: as §1
# [32] = target: Neu5Ac(a2-8)Neu5Ac(a2-8)Neu5Ac
# In short: as §1
# [33] = target: Neu5Ac(a2-8)Neu5Ac(a2-8)Neu5Ac(a2-3)Gal(b1-4)Glc
# In short: as §1
# [34] = target: Neu5Ac(a2-8)Neu5Ac(a2-8)Neu5Ac(a2-3)[GalNAc(b1-4)]Gal(b1-4)Glc
# In short: as §1
# [35] = target: Neu5Ac(a2-8)Neu5Ac(a2-8)Neu5Ac(a2-8)Neu5Ac(a2-3)[GalNAc(b1-4)]Gal(b1-4)Glc
# In short: as §1
# [36] = target: Neu5Ac(b1-6)GalNAc
# In short: as §1
# [37] = target: Neu5Ac(b2-6)Gal(b1-4)GlcNAc
# In short: as §1
# [38] = target: Neu5Ac9Ac(a2-6)Gal(b1-4)GlcNAc
# In short: as §1
# [39] = target: Neu5Gc(a2-3)Gal(b1-3)GlcNAc
# In short: as §1
# [40] = target: Neu5Gc(a2-3)Gal(b1-3)[Fuc(a1-4)]GlcNAc
# In short: as §1
# [41] = target: Neu5Gc(a2-3)Gal(b1-4)Glc
# In short: as §1
# [42] = target: Neu5Gc(a2-3)Gal(b1-4)GlcNAc
# In short: as §1
# [43] = target: Neu5Gc(a2-3)Gal(b1-4)[Fuc(a1-3)]GlcNAc
# In short: as §1
# [44] = target: Neu5Gc(a2-6)Gal(b1-4)GlcNAc
# In short: as §1
# [45] = target: Neu5Gc(a2-6)GalNAc
# In short: as §1
binder,measurement,setting,value
"CLEC7A (Homo sapiens), Q9BXN2 (protein) MEYHPDLENLDEDGYTQLHFDSQSNTRIAVVSEKGSCAASPPWRLIAVILGILCLVILVIAVVLGTMAIWRSNSGSNTLENGYFLSRNKENHSQPTQSSLEDSVTPTKAVKTTGVLSSPCPPNWIIYEKSCYLFSMSLNSWDGSKRQCWQLGSNLLKIDSSNELGFIVKQVSSQPDNSFWIGLSRPQTEVPWLWEDGSTFSSNLFQIRTTATQENPSPNCVWIHVSVIYDQLCSVPSYSICEKKFSM",glycan array binding signal (z-score),[1],-0.477
same,glycan array binding signal (z-score),[2],-0.855
same,glycan array binding signal (z-score),[3],-0.603
same,glycan array binding signal (z-score),[4],-0.189
same,glycan array binding signal (z-score),[5],-0.474
same,glycan array binding signal (z-score),[6],-0.21
same,glycan array binding signal (z-score),[7],-0.22
same,glycan array binding signal (z-score),[8],-0.505
same,glycan array binding signal (z-score),[9],0.695
same,glycan array binding signal (z-score),[10],-0.396
same,glycan array binding signal (z-score),[11],0.138
same,glycan array binding signal (z-score),[12],0.977
same,glycan array binding signal (z-score),[13],0.663
same,glycan array binding signal (z-score),[14],0.154
same,glycan array binding signal (z-score),[15],0.384
same,glycan array binding signal (z-score),[16],-1.15
same,glycan array binding signal (z-score),[17],-0.093
same,glycan array binding signal (z-score),[18],-0.239
same,glycan array binding signal (z-score),[19],0.984
same,glycan array binding signal (z-score),[20],-0.388
same,glycan array binding signal (z-score),[21],-0.718
same,glycan array binding signal (z-score),[22],-0.657
same,glycan array binding signal (z-score),[23],-0.3
same,glycan array binding signal (z-score),[24],-0.551
same,glycan array binding signal (z-score),[25],0.335
same,glycan array binding signal (z-score),[26],0.583
same,glycan array binding signal (z-score),[27],-0.247
same,glycan array binding signal (z-score),[28],-0.252
same,glycan array binding signal (z-score),[29],0.474
same,glycan array binding signal (z-score),[30],0.272
same,glycan array binding signal (z-score),[31],-0.536
same,glycan array binding signal (z-score),[32],4.19
same,glycan array binding signal (z-score),[33],1.53
same,glycan array binding signal (z-score),[34],0.344
same,glycan array binding signal (z-score),[35],0.416
same,glycan array binding signal (z-score),[36],-0.787
same,glycan array binding signal (z-score),[37],-0.223
same,glycan array binding signal (z-score),[38],-0.055
same,glycan array binding signal (z-score),[39],0.646
same,glycan array binding signal (z-score),[40],-0.912
same,glycan array binding signal (z-score),[41],-0.16
same,glycan array binding signal (z-score),[42],-0.68
same,glycan array binding signal (z-score),[43],0.771
same,glycan array binding signal (z-score),[44],-0.292
same,glycan array binding signal (z-score),[45],-0.113
